Assay results reported in PubChem BioAssay (NCATS).
Inconclusive means that the source gave no clear call. Such entries were picked first, then a sample of the others. No potency is given beside an inconclusive call; the fits are too rough. Activity calls are given as the source filed them. The call rests on the fitted dose curve; in most records, active means well fitted curve in the direction sought with a large enough effect in the repeat runs; inconclusive means weak or mixed curves; inactive means no such curve, though single readings can be large; an effect the other way counts as inactive or inconclusive.

Key:
[1] = molecular target: Cytochrome P450 2D6 (Homo sapiens) (UniProt P10635); assay: Cytochrome P450 family 2 subfamily D member 6 (CYP2D6) small molecule antagonists: luciferase biochemical (cell-free) qHTS assay (AID 1645840); conditions: P450-Glo CYP2D6 enzyme, luciferin luminescence, 1 h; series mostly up to 57.4 µM; further: nearly all actives have a fitted effect of over 55% in size
Method in brief: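 P450-Glo luminescent screen: recombinant CYP2D6 enzyme–proluciferin substrate mix preincubated with compound 10 min at room temperature, then NADPH regeneration added for 1 h at room temperature. Detection reagent added for 20 min; luciferin light read as relative luminescence units.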

[2] = molecular target: Cytochrome P450 3A4 (Homo sapiens) (UniProt P08684); assay: Cytochrome P450 family 3 subfamily A member 4 (CYP3A4) small molecule antagonists: luciferase qHTS assay (AID 1645841); conditions: P450-Glo CYP3A4 enzyme assay, luciferin luminescence; series mostly up to 57.4 µM; further: nearly all actives have a fitted effect of over 45% in size
Method in brief: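 P450-Glo CYP3A4 enzyme with proluciferin substrate preincubated 10 min with compound at room temperature, then NADPH regeneration 1 h. Luciferin detection reagent added for 20 min; luminescence recorded. Ketoconazole positive control.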
Potency means the concentration at half of the fitted maximal effect; tags describe the fitted curve by direction and shape.

Sequence of UniProt P10635 (P10635 whole entry, looked up): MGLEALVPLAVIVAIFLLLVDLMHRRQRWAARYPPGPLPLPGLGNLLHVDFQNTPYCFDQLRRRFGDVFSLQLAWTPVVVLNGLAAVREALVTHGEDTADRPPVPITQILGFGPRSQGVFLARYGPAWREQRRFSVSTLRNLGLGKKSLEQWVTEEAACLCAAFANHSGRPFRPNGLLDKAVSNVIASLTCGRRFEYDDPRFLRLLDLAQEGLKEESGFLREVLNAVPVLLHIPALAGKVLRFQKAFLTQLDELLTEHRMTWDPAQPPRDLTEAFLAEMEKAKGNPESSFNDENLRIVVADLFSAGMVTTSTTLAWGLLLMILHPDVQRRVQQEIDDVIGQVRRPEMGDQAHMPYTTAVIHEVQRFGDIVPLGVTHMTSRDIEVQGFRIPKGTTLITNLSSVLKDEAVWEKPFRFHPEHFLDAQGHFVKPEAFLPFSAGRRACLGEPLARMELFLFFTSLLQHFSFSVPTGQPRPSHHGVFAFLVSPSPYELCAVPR
Sequence of UniProt P08684 (P08684 whole entry, looked up): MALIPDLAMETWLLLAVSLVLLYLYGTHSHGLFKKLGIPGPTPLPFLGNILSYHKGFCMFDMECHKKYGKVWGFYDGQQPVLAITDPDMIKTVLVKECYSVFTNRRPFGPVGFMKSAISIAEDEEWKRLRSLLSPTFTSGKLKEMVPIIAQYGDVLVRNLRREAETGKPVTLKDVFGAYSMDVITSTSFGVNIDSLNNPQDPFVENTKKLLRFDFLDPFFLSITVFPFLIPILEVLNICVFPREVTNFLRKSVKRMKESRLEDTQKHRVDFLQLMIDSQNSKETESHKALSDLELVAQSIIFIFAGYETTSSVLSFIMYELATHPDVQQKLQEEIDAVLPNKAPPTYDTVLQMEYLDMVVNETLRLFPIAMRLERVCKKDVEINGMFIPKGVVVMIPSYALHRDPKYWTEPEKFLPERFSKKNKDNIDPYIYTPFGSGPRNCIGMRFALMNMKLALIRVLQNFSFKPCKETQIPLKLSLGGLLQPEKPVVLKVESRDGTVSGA

Row | SMILES | Potency [1] | Potency [2]
1 | COc1ccc(-c2oc3cc(OC)ccc3c2C(=O)c2ccc(C#N)cc2)cc1 | inconclusive [inhibitor, full curve] | –
2 | CC(C(=O)O)c1cccc(C(=O)c2ccccc2)c1 (centres undefined) | inconclusive [inhibitor, partial curve] | –
3 | Clc1ccccc1-c1nc(-c2ccncc2)no1 | – | inconclusive [falling, single point]
4 | CCCCCCCC(=O)[O-].CCCCCCCC(=O)[O-].[Zn+2] | inconclusive [inhibitor, partial curve, poor fit] | –
5 | CC(C)NCC(O)COc1ccc(CCOCC2CC2)cc1 (centres undefined) | inconclusive [inhibitor, single point] | –
6 | Cc1ccc(S(=O)(=O)NC(=O)NC2CCCCCCC2)cc1 | inactive | –
7 | CC(C)(C)NC[C@H](O)COc1cccc2c1CCCC2=O | inconclusive [inhibitor, single point] | –
8 | C[C@@H]1CN(Cc2ccc(F)cc2)[C@@H](C)CN1C(=O)c1cc2c(C(=O)C(=O)N(C)C)cn(C)c2cc1Cl | inconclusive [inhibitor, single point] | –
9 | CCCCCCOc1ccccc1C(N)=O | inconclusive [inhibitor, single point] | –
10 | O=C(c1ccc(F)c(F)c1Nc1ccc(I)cc1F)N1CC(O)([C@H]2CCCCN2)C1 | active: 3.01 µM | –
11 | COc1ccc2cc(CCC(C)=O)ccc2c1 | inconclusive [inhibitor, partial curve, poor fit] | –
12 | CCN(CC)CCNC(=O)c1cc(Cl)c(N)cc1OC | – | inactive
13 | CC(C)Oc1ccc2c(=O)c(-c3ccccc3)coc2c1 | inconclusive [inhibitor, partial curve] | –
14 | CC1(C)Cc2c(sc(NC(=S)NC(=O)c3ccccc3)c2C(=O)O)CO1 | inactive | –
